# In the supplement of paper PMC8728848:
# The other results are listed elsewhere or left out.
# B1: Als3-41 (Candida albicans) (protein)
# chain: KTITGVFNSFNSLTWSNAATYNYKGPGTPTWNAVLGWSLDGTSASPGDTFTLNMPCVFKFTTSQTSVDLTAHGVKYATCQFQAGEEFMTFSTLTCTVSNTLTPSIKALGTVTLPLAFNVGGTGSSVDLEDSKCFTAGTNTVTFNDGGKKISINVDFERSNVDPKGYLTDSRVIPSLNKVSTLFVAPQCANGYTSGTMGFANTYGDVQIDCSNIHVGITKGLNDWNYPVSSESFSYTKTCSSNGIFITYKNVPAGYRPFVDAYISATDVNSYTLSYANEYTCAGGYWQRAPFTLRWTGYRNSDAGSNGIVIVATTRTVTDSTTAVTTLPFDPNRDKTKTIEILKPIPTTTITTSYVGVTTSYLTKTAPIGETATVIVD
# What was measured:
# Assay in all cases: glycan array binding signal (z-score within array); higher = stronger binding
# Conditions in all cases: glycan notation: IUPAC condensed, linker removed
# [1] = target: Gal(b1-4)GlcNAc(b1-3)Gal(b1-4)GlcNAc(b1-2)Man(a1-3)[Gal(b1-4)GlcNAc(b1-3)Gal(b1-4)GlcNAc(b1-2)Man(a1-6)]Man(b1-4)GlcNAc(b1-4)[Fuc(a1-6)]GlcNAc
# How it was run: (§1)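 The binding signal is a Z-score computed within each array. Data were drawn from 3228 arrays in the Consortium for Functional Glycomics database, restricted to those with a known protein sequence. Scores were averaged over arrays of the same protein sequence at different concentrations or buffers, and over linkers, and negative values can be taken as non-binding.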
# [2] = target: Gal(b1-4)GlcNAc(b1-3)Gal(b1-4)GlcNAc(b1-2)[Gal(b1-4)GlcNAc(b1-3)Gal(b1-4)GlcNAc(b1-6)]Man(a1-6)[Gal(b1-4)GlcNAc(b1-3)Gal(b1-4)GlcNAc(b1-2)Man(a1-3)]Man(b1-4)GlcNAc(b1-4)GlcNAc
# How it was run: as §1
# [3] = target: Gal(b1-4)GlcNAc(b1-3)Gal(b1-4)GlcNAc(b1-2)[Gal(b1-4)GlcNAc(b1-3)Gal(b1-4)GlcNAc(b1-6)]Man(a1-6)[Gal(b1-4)GlcNAc(b1-3)Gal(b1-4)GlcNAc(b1-2)Man(a1-3)]Man(b1-4)GlcNAc(b1-4)[Fuc(a1-6)]GlcNAc
# How it was run: as §1
# [4] = target: Gal(b1-4)GlcNAc(b1-3)Gal(b1-4)GlcNAc(b1-3)Gal(b1-4)GlcNAc
# How it was run: as §1
# [5] = target: Gal(b1-4)GlcNAc(b1-3)Gal(b1-4)GlcNAc(b1-3)Gal(b1-4)GlcNAc(b1-2)Man(a1-3)[Gal(b1-4)GlcNAc(b1-3)Gal(b1-4)GlcNAc(b1-3)Gal(b1-4)GlcNAc(b1-2)Man(a1-6)]Man(b1-4)GlcNAc(b1-4)GlcNAc
# How it was run: as §1
# [6] = target: Gal(b1-4)GlcNAc(b1-3)Gal(b1-4)GlcNAc(b1-3)Gal(b1-4)GlcNAc(b1-2)Man(a1-3)[Gal(b1-4)GlcNAc(b1-3)Gal(b1-4)GlcNAc(b1-3)Gal(b1-4)GlcNAc(b1-2)Man(a1-6)]Man(b1-4)GlcNAc(b1-4)[Fuc(a1-6)]GlcNAc
# How it was run: as §1
# [7] = target: Gal(b1-4)GlcNAc(b1-3)Gal(b1-4)GlcNAc(b1-3)Gal(b1-4)GlcNAc(b1-2)[Gal(b1-4)GlcNAc(b1-3)Gal(b1-4)GlcNAc(b1-3)Gal(b1-4)GlcNAc(b1-6)]Man(a1-6)[Gal(b1-4)GlcNAc(b1-3)Gal(b1-4)GlcNAc(b1-3)Gal(b1-4)GlcNAc(b1-2)Man(a1-3)]Man(b1-4)GlcNAc(b1-4)[Fuc(a1-6)]GlcNAc
# How it was run: as §1
# [8] = target: Gal(b1-4)GlcNAc(b1-3)Gal(b1-4)GlcNAc(b1-3)Gal(b1-4)GlcNAc(b1-3)Gal(b1-4)GlcNAc(b1-2)Man(a1-3)[Gal(b1-4)GlcNAc(b1-3)Gal(b1-4)GlcNAc(b1-3)Gal(b1-4)GlcNAc(b1-3)Gal(b1-4)GlcNAc(b1-2)Man(a1-6)]Man(b1-4)GlcNAc(b1-4)GlcNAc
# How it was run: as §1
# [9] = target: Gal(b1-4)GlcNAc(b1-3)Gal(b1-4)GlcNAc(b1-3)Gal(b1-4)GlcNAc(b1-3)Gal(b1-4)GlcNAc(b1-2)Man(a1-3)[Gal(b1-4)GlcNAc(b1-3)Gal(b1-4)GlcNAc(b1-3)Gal(b1-4)GlcNAc(b1-3)Gal(b1-4)GlcNAc(b1-2)Man(a1-6)]Man(b1-4)GlcNAc(b1-4)[Fuc(a1-6)]GlcNAc
# How it was run: as §1
# [10] = target: Gal(b1-4)GlcNAc(b1-3)Gal(b1-4)GlcNAc(b1-3)Gal(b1-4)GlcNAc(b1-3)Gal(b1-4)GlcNAc(b1-2)[Gal(b1-4)GlcNAc(b1-3)Gal(b1-4)GlcNAc(b1-3)Gal(b1-4)GlcNAc(b1-3)Gal(b1-4)GlcNAc(b1-6)]Man(a1-6)[Gal(b1-4)GlcNAc(b1-3)Gal(b1-4)GlcNAc(b1-3)Gal(b1-4)GlcNAc(b1-3)Gal(b1-4)GlcNAc(b1-2)Man(a1-3)]Man(b1-4)GlcNAc(b1-4)[Fuc(a1-6)]GlcNAc
# How it was run: as §1
# [11] = target: Gal(b1-4)GlcNAc(b1-3)Gal(b1-4)GlcNAc(b1-3)Gal(b1-4)GlcNAc(b1-3)Gal(b1-4)GlcNAc(b1-3)Gal(b1-4)GlcNAc(b1-2)Man(a1-3)[Gal(b1-4)GlcNAc(b1-3)Gal(b1-4)GlcNAc(b1-3)Gal(b1-4)GlcNAc(b1-3)Gal(b1-4)GlcNAc(b1-3)Gal(b1-4)GlcNAc(b1-2)Man(a1-6)]Man(b1-4)GlcNAc(b1-4)GlcNAc
# How it was run: as §1
# [12] = target: Gal(b1-4)GlcNAc(b1-3)Gal(b1-4)GlcNAc(b1-3)Gal(b1-4)GlcNAc(b1-3)Gal(b1-4)GlcNAc(b1-3)Gal(b1-4)GlcNAc(b1-2)Man(a1-3)[Gal(b1-4)GlcNAc(b1-3)Gal(b1-4)GlcNAc(b1-3)Gal(b1-4)GlcNAc(b1-3)Gal(b1-4)GlcNAc(b1-3)Gal(b1-4)GlcNAc(b1-2)Man(a1-6)]Man(b1-4)GlcNAc(b1-4)[Fuc(a1-6)]GlcNAc
# How it was run: as §1
# [13] = target: Gal(b1-4)GlcNAc(b1-3)Gal(b1-4)GlcNAc(b1-3)Gal(b1-4)GlcNAc(b1-3)Gal(b1-4)GlcNAc(b1-3)Gal(b1-4)GlcNAc(b1-2)[Gal(b1-4)GlcNAc(b1-3)Gal(b1-4)GlcNAc(b1-3)Gal(b1-4)GlcNAc(b1-3)Gal(b1-4)GlcNAc(b1-3)Gal(b1-4)GlcNAc(b1-6)]Man(a1-6)[Gal(b1-4)GlcNAc(b1-3)Gal(b1-4)GlcNAc(b1-3)Gal(b1-4)GlcNAc(b1-3)Gal(b1-4)GlcNAc(b1-3)Gal(b1-4)GlcNAc(b1-2)Man(a1-3)]Man(b1-4)GlcNAc(b1-4)[Fuc(a1-6)]GlcNAc
# How it was run: as §1
# [14] = target: Gal(b1-4)GlcNAc(b1-3)Gal(b1-4)GlcNAc(b1-3)Gal(b1-4)GlcNAc(b1-3)Gal(b1-4)GlcNAc(b1-3)Gal(b1-4)GlcNAc(b1-3)Gal(b1-4)GlcNAc(b1-2)Man(a1-3)[Gal(b1-4)GlcNAc(b1-3)Gal(b1-4)GlcNAc(b1-3)Gal(b1-4)GlcNAc(b1-3)Gal(b1-4)GlcNAc(b1-3)Gal(b1-4)GlcNAc(b1-3)Gal(b1-4)GlcNAc(b1-2)Man(a1-6)]Man(b1-4)GlcNAc(b1-4)GlcNAc
# How it was run: as §1
# [15] = target: Gal(b1-4)GlcNAc(b1-3)Gal(b1-4)GlcNAc(b1-3)GalNAc
# How it was run: as §1
# [16] = target: Gal(b1-4)GlcNAc(b1-3)Gal(b1-4)GlcNAc(b1-3)[Gal(b1-4)GlcNAc(b1-3)Gal(b1-4)GlcNAc(b1-6)]GalNAc
# How it was run: as §1
# [17] = target: Gal(b1-4)GlcNAc(b1-3)Gal(b1-4)GlcNAc(b1-6)[Gal(b1-3)]GalNAc
# How it was run: as §1
# [18] = target: Gal(b1-4)GlcNAc(b1-3)Gal(b1-4)[Fuc(a1-3)]GlcNAc(b1-3)Gal(b1-4)[Fuc(a1-3)]GlcNAc
# How it was run: as §1
# [19] = target: Gal(b1-4)GlcNAc(b1-3)GalNAc
# How it was run: as §1
# [20] = target: Gal(b1-4)GlcNAc(b1-3)[Fuc(a1-3)GlcNAc(b1-6)]Gal(b1-4)Glc
# How it was run: as §1
# [21] = target: Gal(b1-4)GlcNAc(b1-3)[Gal(b1-4)GlcNAc(b1-6)]Gal(b1-4)GlcNAc
# How it was run: as §1
# [22] = target: Gal(b1-4)GlcNAc(b1-3)[GlcNAc(b1-6)]Gal(b1-4)GlcNAc
# How it was run: as §1
# [23] = target: Gal(b1-4)GlcNAc(b1-6)Gal(b1-4)GlcNAc
# How it was run: as §1
# [24] = target: Gal(b1-4)GlcNAc(b1-6)GalNAc
# How it was run: as §1
# [25] = target: Gal(b1-4)GlcNAc(b1-6)[Gal(b1-3)]GalNAc
# How it was run: as §1
# [26] = target: Gal(b1-4)GlcNAc(b1-6)[Gal(b1-4)GlcNAc(b1-3)]GalNAc
# How it was run: as §1
# Gal(b1-4)GlcNAc6P = target: Gal(b1-4)GlcNAc6P
# How it was run: as §1
# Gal(b1-6)Gal = target: Gal(b1-6)Gal
# How it was run: as §1
# Gal3S(b1-3)GalNAc = target: Gal3S(b1-3)GalNAc
# How it was run: as §1
# Gal3S(b1-3)GlcNAc = target: Gal3S(b1-3)GlcNAc
# How it was run: as §1
# [27] = target: Gal3S(b1-3)[Fuc(a1-4)]GlcNAc
# How it was run: as §1
# Gal3S(b1-4)Glc = target: Gal3S(b1-4)Glc
# How it was run: as §1
# Gal3S(b1-4)Glc6S = target: Gal3S(b1-4)Glc6S
# How it was run: as §1
# Gal3S(b1-4)GlcNAc = target: Gal3S(b1-4)GlcNAc
# How it was run: as §1
# [28] = target: Gal3S(b1-4)[Fuc(a1-3)]Glc6S
# How it was run: as §1
# [29] = target: Gal3S(b1-4)[Fuc(a1-3)]GlcNAc
# How it was run: as §1
# [30] = target: Gal3S(b1-4)[Fuc(a1-3)]GlcNAc6S
# How it was run: as §1
binder,measurement,setting,value
B1,glycan array binding signal (z-score),[1],-0.046
same,glycan array binding signal (z-score),[2],1.54
same,glycan array binding signal (z-score),[3],-0.085
same,glycan array binding signal (z-score),[4],-0.354
same,glycan array binding signal (z-score),[5],2.56
same,glycan array binding signal (z-score),[6],-0.126
same,glycan array binding signal (z-score),[7],0.011
same,glycan array binding signal (z-score),[8],-0.136
same,glycan array binding signal (z-score),[9],0.022
same,glycan array binding signal (z-score),[10],0.219
same,glycan array binding signal (z-score),[11],1.05
same,glycan array binding signal (z-score),[12],-0.149
same,glycan array binding signal (z-score),[13],-0.117
same,glycan array binding signal (z-score),[14],-0.051
same,glycan array binding signal (z-score),[15],0.305
same,glycan array binding signal (z-score),[16],0.992
same,glycan array binding signal (z-score),[17],1.05
same,glycan array binding signal (z-score),[18],-0.306
same,glycan array binding signal (z-score),[19],-0.261
same,glycan array binding signal (z-score),[20],-0.31
same,glycan array binding signal (z-score),[21],-0.137
same,glycan array binding signal (z-score),[22],-0.263
same,glycan array binding signal (z-score),[23],-0.092
same,glycan array binding signal (z-score),[24],-0.186
same,glycan array binding signal (z-score),[25],-0.165
same,glycan array binding signal (z-score),[26],-0.259
same,glycan array binding signal (z-score),Gal(b1-4)GlcNAc6P,0.408
same,glycan array binding signal (z-score),Gal(b1-6)Gal,-0.221
same,glycan array binding signal (z-score),Gal3S(b1-3)GalNAc,-0.287
same,glycan array binding signal (z-score),Gal3S(b1-3)GlcNAc,-0.197
same,glycan array binding signal (z-score),[27],-0.139
same,glycan array binding signal (z-score),Gal3S(b1-4)Glc,-0.112
same,glycan array binding signal (z-score),Gal3S(b1-4)Glc6S,-0.151
same,glycan array binding signal (z-score),Gal3S(b1-4)GlcNAc,-0.21
same,glycan array binding signal (z-score),[28],0.781
same,glycan array binding signal (z-score),[29],-0.184
same,glycan array binding signal (z-score),[30],-0.263
